A short description of data set [1]: Accelerated stability study, 2 weeks at 37° C., SDS-PAGE and Reversed Phase HPLC (RPC). The note with it: for stability when compared with PSI0242: 2 weeks at 37° C., conclusion in words.
Data set [2] can be described thus: 3 month stability test at 37° C., RPC. The format is physicochemical. The text has this: The 2 weeks data from example 2 is included in Table VIII below to make the interpretation easier.
Data set [3] is described as follows: Far UV circular dichroism, secondary structure content estimated with CDNN. The format is physicochemical. The note with it: 0.17 mg/ml in Pi buffer pH 7.0. The protocol: The CD spectra were recorded by a J-720 CD spectropolarimeter (Jasco, Japan). The samples were diluted to 0.17 mg/ml protein concentration using Pi buffer (5 mM Na—K—PO4, pH 7.0). A CD spectrum of Pi buffer was firstly recorded, then spectra were recorded for each of the samples and lastly for the Pi buffer again. […] The buffer spectrum was smoothened using the Savitzky-Golay procedure with convolution width of 25. The other spectra were smoothened according to the same procedure with a convolution width of 15. The smoothened buffer spectrum was then subtracted from each of the other smoothened spectra. […] The integrity of the secondary structure content was compared to the recombinantly produced PSI0257 (SEQ ID NO: 271).

Setting [4] is: RPC after 2 weeks at 37° C., 25 mM NaP/125 mM NaCl pH 7.0.
Where [5] appears, read: after 2 weeks at 37° C., 25 mM NaP/125 mM NaCl pH 7.0.
Where [6] appears, read: RPC, 2 weeks, 37° C., data from example 2.

“Also recorded” adds a separate entry of the source. Like-named read-outs stand apart in the source and are kept apart here.

B1: PSI0369: C5 binding compound in which D60 and the entire linking moiety is absent (protein)
chain: AEAKYAKEVLEAWDEIDRLPNLTIEQWLAFINKLDDDPSQSSELLSEAKKLNDSQAPLAEAKEAANAELDSYGVSDFYKRLIDKAKTVEGVEALKDAILAALP
modifications: Modified bacterial sequence
Consider B1, for which, in data set [1], the “stability when compared with PSI0242” value is on record as “increased stability; also recorded: more stable”. In data set [1] (setting [4]), the “Main peak (% of total protein)” value is on record as 90 % of total protein. In data set [1] (setting [5]), this molecule yielded an RPC post peaks of 1, an RPC prepeaks of 1 and an SDS-PAGE bands of 2.

B2: PSI0379: C5 binding compound derived from PSI0242 with substitutions N52S, D53E and D60A (protein)
chain: AEAKYAKEVLEAWDEIDRLPNLTIEQWLAFINKLDDDPSQSSELLSEAKKLSESQAPKVAGSLAEAKEAANAELDSYGVSDFYKRLIDKAKTVEGVEALKDAILAALP
modifications: Modified bacterial sequence
B2: in data set [2], the “3 months, 37° C. Main peak (% of total protein)” value (from here on “3 months … (% of total protein)”) is 58 % of total protein and the “proportion of protein in the original form after 3 months at 37° C. versus PSI0242 after 2 weeks” value was “higher proportion of protein in the original form”. Moreover, the “2 weeks, 37° C. Main peak (% of total protein)” value (from here on “2 weeks … (% of total protein)”) in data set [1] is given as 88 % of total protein. For the same molecule, in data set [1] (pH 7), the “Main peak (% of total protein)” value is reported as 88 % of total protein, the RPC post peaks came out at 0, the RPC prepeaks stood at 0 and the SDS-PAGE bands turned out to be 1.

B3: PSI0404: C5 binding compound derived from PSI0242 with substitutions N52S and D60E (protein)
chain: AEAKYAKEVLEAWDEIDRLPNLTIEQWLAFINKLDDDPSQSSELLSEAKKLSDSQAPKVEGSLAEAKEAANAELDSYGVSDFYKRLIDKAKTVEGVEALKDAILAALP
modifications: Modified bacterial sequence
With B3, in data set [2] (RPC, 3 months, 37° C.), the “3 months … (% of total protein)” value is given as 46 % of total protein. Also, the “stability when compared with PSI0242” value in data set [1] is “increased stability”. For the same molecule, the “Main peak (% of total protein)” value in data set [1] (setting [4]) is given as 88 % of total protein. The “2 weeks … (% of total protein)” value in data set [1] (setting [6]) is listed as 88 % of total protein. Besides, in data set [1] (setting [5]), the RPC post peaks was 0, the RPC prepeaks is 1 and the SDS-PAGE bands is recorded as 1.

B4: PSI0336: modified C5 binding compound (protein)
chain: AEAKYAKEVLEAWSEIDRLPNLTIEQWLAFINKLDDDPSQSSELLSEAKKLNDSQAPKVDGSLAEAKEAANAELDSYGVSDFYKRLIDKAKTVEGVEALKDAILAALP
modifications: Modified bacterial sequence
As for B4, in data set [1] (setting [4]), the “Main peak (% of total protein)” value is listed as 57 % of total protein. In data set [1] (setting [5]), this molecule returned an RPC post peaks of 1, an RPC prepeaks of 2 and an SDS-PAGE bands of 2.

B5: PSI0334: modified C5 binding compound, positions 52-53 substituted from ND to SE, X60 is D (protein)
chain: AEAKYAKEVLEAWDEIDRLPNLTIEQWLAFINKLDDDPSQSSELLSEAKKLSESQAPKVDGSLAEAKEAANAELDSYGVSDFYKRLIDKAKTVEGVEALKDAILAALP
modifications: Modified bacterial sequence
Consider B5, for which, in data set [2] (RPC, 3 months, 37° C.), the “3 months … (% of total protein)” value was 16 % of total protein. For the same molecule, the “stability when compared with PSI0242” value in data set [1] is given as “increased stability”. For the same molecule, the “Main peak (% of total protein)” value in data set [1] (setting [4]) is 73 % of total protein. For the same molecule, in data set [1] (setting [6]), the “2 weeks … (% of total protein)” value is given as 73 % of total protein. In data set [1] (setting [5]), the RPC post peaks is 0, the RPC prepeaks was found to be 1 and the SDS-PAGE bands is on record as 1.

B6: PSI0335: modified C5 binding compound (protein)
chain: AEAKYAKEVLEAWDEIDRLPNLTIEQWLAFINKLDDDPSQSSELLSEAKKLNDSQAPKVDGSLAEAKVLANRELDKYGVSDFYKRLINKAKTVEGVEALKLHILAALP
modifications: Modified bacterial sequence
On to B6, for which the “Main peak (% of total protein)” value in data set [1] (setting [4]) is recorded as 57 % of total protein. In data set [1] (setting [5]), this molecule came in with an RPC post peaks of 1, an RPC prepeaks of 2 and an SDS-PAGE bands of 2.

B7: PSI0339: modified C5 binding compound (protein)
chain: AEAKYAKEVLEAWDEIDRLPNLTIEQWLAFIAKLDDDPSQSSELLSEAKKLNDSQAPKVDGSLAEAKEAANAELDSYGVSDFYKRLIDKAKTVEGVEALKDAILAALP
modifications: Modified bacterial sequence
For B7, in data set [1] (setting [4]), the “Main peak (% of total protein)” value was 57 % of total protein. In data set [1] (setting [5]), this molecule came in with an RPC post peaks of 1, an RPC prepeaks of 2 and an SDS-PAGE bands of 2.

B8: PSI0403: C5 binding compound derived from PSI0242 with substitutions D53E and D60E (protein)
chain: AEAKYAKEVLEAWDEIDRLPNLTIEQWLAFINKLDDDPSQSSELLSEAKKLNESQAPKVEGSLAEAKEAANAELDSYGVSDFYKRLIDKAKTVEGVEALKDAILAALP
modifications: Modified bacterial sequence
For B8, the “3 months … (% of total protein)” value in data set [2] (RPC, 3 months, 37° C.) is 35 % of total protein. Further, in data set [1], the “stability when compared with PSI0242” value is recorded as “increased stability”. In addition, in data set [1] (setting [4]), the “Main peak (% of total protein)” value is recorded as 77 % of total protein. In addition, the “2 weeks … (% of total protein)” value in data set [1] (setting [6]) is reported as 77 % of total protein. In data set [1] (setting [5]), the RPC post peaks is 1, the RPC prepeaks came out at 1 and the SDS-PAGE bands was 1.

B9: PSI0381: C5 binding compound derived from PSI0242 with substitutions N52E, D53S and D60E (protein)
chain: AEAKYAKEVLEAWDEIDRLPNLTIEQWLAFINKLDDDPSQSSELLSEAKKLESSQAPKVEGSLAEAKEAANAELDSYGVSDFYKRLIDKAKTVEGVEALKDAILAALP
modifications: Modified bacterial sequence
Regarding B9, the “3 months … (% of total protein)” value in data set [2] (RPC, 3 months, 37° C.) was 46 % of total protein. Further, the “stability when compared with PSI0242” value in data set [1] was “increased stability”. For the same molecule, in data set [1] (setting [4]), the “Main peak (% of total protein)” value is 87 % of total protein. In data set [1] (setting [6]), the “2 weeks … (% of total protein)” value was 87 % of total protein. Besides, in data set [1] (setting [5]), the RPC post peaks is reported as 0, the RPC prepeaks is 0 and the SDS-PAGE bands is 1.

B10: PSI0337: modified C5 binding compound (protein)
chain: AEAKYAKEVLEAWDEIERLPNLTIEQWLAFINKLDDDPSQSSELLSEAKKLNDSQAPKVDGSLAEAKEAANAELDSYGVSDFYKRLIDKAKTVEGVEALKDAILAALP
modifications: Modified bacterial sequence
For B10, in data set [1] (setting [4]), the “Main peak (% of total protein)” value is recorded as 57 % of total protein. For the same molecule, in data set [1] (setting [5]), the RPC post peaks was 1, the RPC prepeaks was 2 and the SDS-PAGE bands came to 2.

B11: PSI0340: modified C5 binding compound (protein)
chain: AEAKYAKEVLEAWDEIDRLPNLTIEQWLAFINKLEDDPSQSSELLSEAKKLNDSQAPKVDGSLAEAKEAANAELDSYGVSDFYKRLIDKAKTVEGVEALKDAILAALP
modifications: Modified bacterial sequence
Consider B11, for which the “stability when compared with PSI0242” value in data set [1] is recorded as “increased stability”. The “Main peak (% of total protein)” value in data set [1] (setting [4]) was 67 % of total protein. In data set [1] (setting [5]), this molecule returned an RPC post peaks of 1, an RPC prepeaks of 2 and an SDS-PAGE bands of 2.

B12: PSI0332: modified C5 binding compound with amino acid substitutions in the loop [L2] (protein)
chain: AEAKYAKEVLEAWDEIDRLPNLTIEQWLAFINKLDRQPEQSSELLSEAKKLNDSQAPKVDGSLAEAKEAANAELDSYGVSDFYKRLIDKAKTVEGVEALKDAILAALP
modifications: Modified bacterial sequence
As for B12, the “Main peak (% of total protein)” value in data set [1] (setting [4]) is reported as 57 % of total protein. In data set [1] (setting [5]), this molecule came in with an RPC post peaks of 1, an RPC prepeaks of 1 and an SDS-PAGE bands of 2.

B13: PSI0257: recombinant C5 binding polypeptide produced in accordance with the methods of Example 2 (protein)
chain: AEAKYAKEVLEAWDEIDRLPNLTIEQWLAFINKLDDDPSQSSELLSEAKKLNDSQAPKVDGS
modifications: Modified bacterial sequence
With B13, in data set [3], the Antiparallel is given as 3%, the Beta-Turn is on record as 13%, the Helix was 63% and the Parallel is on record as 3%. In addition, the “Rndm. Coil” value in data set [3] is recorded as 13%.

These data come from patent US9994626B2, “Stable polypeptides binding to human complement C5” (Swedish Orphan Biovitrum AB (publ), priority 2013, dated 2018).
